Measurements from the supplement of paper PMC12632987.
Whole data set: some 2,300 sequences, median “median log2 fold change of GCK-ALFA target abundance (FLAG IP / Myc IP barcode read proportion)” near 0.095, cut for the lowest 2% near -0.47. Some of the results follow.

B1: LC3A_3_1450 (protein)
chain: AEEIIEEAEKVLKEFGRSEETIEAARELLEALAEKGYEEAMKTLLEELKKLKDVSSEIILAMLEEIKYIVENEDLSEEEVIEEIKSEAAAAKSEQEIIEL
B2: LC3A_59_2022 (protein)
chain: SARLEAARAELRATGPDREALADVIIEHLLEARDDPELLAELEALIAEVLVEKGVLSPELAAEMLAEMRAAVATLADPEEARARMREIFNTALNEEEIIE
B3: LC3A_28_800 (protein)
chain: SETRESAEKAREEAERLIAAGEEPVITIEISADATQEELDYVAETIREMARLAKEAGIPKLYVVVDSPDNQEAITKISETEDELRKEGLPVDVIIAIDEP
B4: LC3A_28_1057 (protein)
chain: SEVEKEIEEALAKAKELAAKGEEALITIKIKKEDTEEDVEKKLKALKEIAEITKDLPKTDIIVDIDNKNKEEVTKKFAELGDELEKKYPNVTVILALSEE
B5: LC3A_28_712 (protein)
chain: GEIEKNIEAALKEAKEAAAKGEEVVVEIKVPGTATEEDIEKVIKALEEIAEILKDLPSAAIVVDVDGGVPQEYIDKIAERAEEIEKKYPNVTVIIALEES
B6: LC3A_28_754 (protein)
chain: MDIEEEVEKAIEEARKAVAAGEEAVITITVPAGATEEDVEKVIEGMEEIAEIAKDMKRMTIVVDIEAGVPQEHIDKLIDKGEEIEERYPNVTVIFALDED
B7: LC3A_16_521 (protein)
chain: MEELKEKLEILLKASEALDSDFEKFVELLIELDPSRKEEILEASKTPDAKAKLAEIAAEIAEELLEKLKKEGTEEQKQTAENIRDLFETEALLEQVRLEE
B8: LC3A_3_1544 (protein)
chain: VEEELEKALKELKEKGASEETLEAFKKAAKALIERGYEEAAKTFIEEMRKLKDAPNEILLDFANDVLELIETSDLNEEELIKKIKEIATIYKNESEIEEL
B9: LC3A_147_398 (protein)
chain: ATVVIDIDVLVKEDRSVIEELVEKLKETAEKLGAEVEVEVEIIEEPGEIYARITVKVKTSNDPEKIKEVENALIDTVEEFEEKNKDKVLGSLISIEVIEE
B10: LC3A_3_1542 (protein)
chain: LEKELEELLKKLKEAGASEETLKAVKEAFEALKERGYEKAAKTFIEETEKLIDAPSELLLDFAEEVLELVKTSDLDEESLVKEIKAIARTIANESEIIEL
B11: LC3A_28_1202 (protein)
chain: SATKAAADAALAEAKALLAAGEEGVVELVVEGKITEEETQYVIDKLEEIAELAAKSGKISIVLDISGEVPEEHQQKLIDKADELEKKYPNVNIIVALEER
B12: LC3A_free_0_2097 (protein)
chain: KKVVVEVVAISKKKLKEEDLKKVEEELRKLAERIERERGAKTRVEVSEIDGRNVFTITVEHENWTLDEGLALAREISDFVEETFKSLGAEVTIYESVVVE
B13: LC3A_free_8_2473 (protein)
chain: SVQELVDQITALLDELEEKVREKAKELGVDELDILELELEIGSLIADLISASDGTIEEVKEIAEEGLEEIEELAKELSEEIAEIVRETREKILALLEAAE
B14: LC3A_free_0_2121 (protein)
chain: KKTVVELVVILDEKTSEEKAKEAYEELKEKAEELAEENGWEVEVKLDKVDGRHIITVTLTSDEPDIDKGLELERKLSEIAEEIAKKLGLDATIYSSVYLE
B15: LC3A_28_1187 (protein)
chain: SELEEELKKAIEEAKEKAKKGEPAVITIKVPGDANEEDIERVIETLREIAEILKDIKGSAIIIDLDGGVKQEHQDRLMKEGEEIEKKYPNVTVIFALEER
B16: LC3A_28_741 (protein)
chain: SELEENLKKALEEAKKAAKAGESAVITIKIPGTATEEDIEKVIKALKEIAEILKDVKDQAIIIDIDGKLDEKLLTKLADAADEIEKKYPNVTVIIALDEE
B17: LC3A_45_1974 (protein)
chain: MKKARITIWVKREYAEEVKEALYKTAEELEKKYGDDLKIDKESMDKSMEETKDEEFVELEVVIEAKTQEILEEAVNAIIDTMDEVGDHKVAMIEVEELPP
B18: LC3A_3_1610 (protein)
chain: MEELVEEELERLREAGLSEEVLEKARELLEALAAKGFEEAARTATEELLKLKDLPEELLLAMLEEMLEKVETEDLNEEEVIKFIREEARLARLEAEIEEL
B19: LC3A_3_1757 (protein)
chain: GEELIEEARRLLEEHGASEETIEAVERALRALLERGLEEQARRLVEALRRAERLDDELLLAFAEELLALVESHTGSREELAARVEEELRAFEAGAEIEEL
B20: LC3A_62_2057 (protein)
chain: MVKLKVDIIISTNTLEAAKEAYEKMKKFLEELEKKHPGVKSKVSLNEETNTVTVDVIIEAETREEALAIAKEIEDHAISIVDELDKKGVAAIVSIDREEL
B21: LC3A_free_46_2328 (protein)
chain: VKLNIDIDLLHEDKEKMEKAVKEIEEKIKEIAEKYNAKVKIEVEISKDPDGSYFAKINIEIEAETLEKAQEIKTEIIDSIEEIADKYGISYIISYEIEEL
B22: LC3A_3_1733 (protein)
chain: MEEILEEARKRLEELGFSEEVIEAALETIKALLEKGLEEEVKLLLETLEKIKDADEELILAYLKEIKELVETSKESKEELRKKVRELIKTLENDAEIEEL
B23: LC3A_13_338 (protein)
chain: TVKLEVETPEELREKGTAALEAHPGETIEITVTVKDFEEADAIAEVLSELMKLAAEKGNKINITIKGKRDVVTYLAVLVGSDAYELINKLDITITEEVVG
B24: LC3A_147_500 (protein)
chain: YKVEVDIDLLTKNDKELVEKLVKEIEEELKKKGKKVKVEVEFEKVDENTTYAHITITVEVETKEEAEETANLILDMIDEFIEANKDKILGSLISVSIEKK
B25: LC3A_132_272 (protein)
chain: GEEKAEKIKKELEKLIKELEENIDDLEKVKKLVKEIEELLKKAEKELSPELVAEVADHVADLADKVAEKYEAAGKEEEALLVENLSMYADGIRIEAELKL
B26: LC3A_3_1643 (protein)
chain: MEEEVERAEKLLKEAGASEETLEAFRETAELLKEKGFEEALKTLIEEVEKLKDLPSELLLDMLEEVLYLLKNEDLNEEEVIEKIKEIAKITLNESEIIEL
B27: LC3A_3_1692 (protein)
chain: MEELVKKVLEELKKIGADEETLKAAKELLDELKEKGYEKAIEELLKELKKLKNADSEILKDMFEDLLYKVKNENLSEEEVVELIKEEARVAKNEQEIEEL
B28: LC3A_3_1856 (protein)
chain: MDEIIAEALAYLKELGRSEETIAAAKELLEALKKKGFLEAAKTFLEELKKLENVSDEDLKEMFLELLKAVEEKDLNEEEAIELIKSEARVLLNAEEIEEL
B29: LC3A_28_832 (protein)
chain: SSVDARIAAFQAEVDAAVAAGVSQTFVVTITSEDTLEEVKKIMDAVREAAGKAASIPNQSIVIDLDGKIEQEKLDAILDAADEIEKEYPNVSVIIALPEE

What follows are binders tested against MAP1LC3A, Q9H492 (assay: median log2 fold change of GCK-ALFA target abundance (FLAG IP / Myc IP barcode read proportion) (log2 ratio); each designed protein is fused to an ALFA-tag nanobody in HEK293 cells to bring the named protein to FLAG-tagged glucokinase (GCK); Myc marks an untargeted standard; higher = target protein stabilised (more abundant)). Conditions: target protein: 3xFLAG-MCP-GCK-ALFA reporter; HEK293 landing pad (RPLP).
Description: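 LABEL-seq trans screen in HEK293 landing-pad cells. Each de novo designed 100-aa effector handle, binding the indicated effector (E3 ligase, DUB or autophagy protein), is fused to a constant NbALFA target handle and induced with 2 ug/mL doxycycline. A FLAG-MCP-GCK-ALFA target and a Myc-MCP standard reporter were transfected, and after 48 h circRNA barcodes were recovered by anti-FLAG and anti-Myc IP and sequenced. The value is the median across barcodes (at least 3 per design) of log2(FLAG/Myc read-proportion ratio), with the two transfection replicates pooled. Negative values mean degradation and positive values mean stabilisation of the target.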
For B1, the “median log2 fold change” value was 0.0368. In the case of B2, the “median log2 fold change” value is reported as 0.387. For B3, the “median log2 fold change” value was -0.0317. With B4 the “median log2 fold change” value was 0.481. In the case of B5, the “median log2 fold change” value is reported as 0.081. With B6 the “median log2 fold change” value was -0.227. With B7 the “median log2 fold change” value was 0.336. For B8, the “median log2 fold change” value was 0.36. In the case of B9, the “median log2 fold change” value is reported as 0.112. In the case of B10, the “median log2 fold change” value is reported as 0.402. With B11 the “median log2 fold change” value was -0.206. For B12, the “median log2 fold change” value was -0.0195. With B13 the “median log2 fold change” value was -0.379. For B14, the “median log2 fold change” value was 0.00278. For B15, the “median log2 fold change” value was 0.0852. With B16 the “median log2 fold change” value was 0.181. For B17, the “median log2 fold change” value was -0.00291. For B18, the “median log2 fold change” value was 0.142. B19 was tested, and the “median log2 fold change” value was 0.287. In the case of B20, the “median log2 fold change” value is reported as 0.0926. In the case of B21, the “median log2 fold change” value is reported as 0.163. In the case of B22, the “median log2 fold change” value is reported as 0.278. In the case of B23, the “median log2 fold change” value is reported as 0.0888. B24 was tested, and the “median log2 fold change” value was -0.396. For B25, the “median log2 fold change” value was 0.157. For B26, the “median log2 fold change” value was 0.121. In the case of B27, the “median log2 fold change” value is reported as 0.26. For B28, the “median log2 fold change” value was 0.361. For B29, the “median log2 fold change” value was -0.0985.
